Test results published in PubChem BioAssay AID588342 (National Center for Advancing Translational Sciences (NCATS), 2011).
The campaign covered roughly 360,000 compounds. About 25,000 (6.9%) were called active. This list was built around the results that the source calls inconclusive (neither active nor inactive); the mix of calls is not that of the screen. The call rests on the fitted dose curve; in most records, active means well fitted inhibition curve with a large enough effect; inconclusive means small, poorly fitted or top-dose-only effect; inactive means flat fitted curve, though single readings scatter. Where the call is inconclusive, the potency comes from a doubtful curve fit.

What follows are compounds tested against Luciferin 4-monooxygenase (Photinus pyralis) (UniProt P08659) (assay: qHTS profiling assay for firefly luciferase inhibitor/activator using purifed enzyme and Km concentrations of substrates (counterscreen for miR-21 project)). Details: purified FLuc, luminescence inhibition; series mostly up to 57.5 µM.
In short: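 Purified P. pyralis luciferase, 10 nM final, with Km-level 10 uM D-luciferin and 10 uM ATP in 50 mM Tris acetate pH 7.5, 10 mM Mg acetate, 0.01% Tween-20, 0.05% BSA; 6-point qHTS titration about 60 µM downward; luminescence read.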
Further: nearly all actives have a fitted effect of over 55% in size.
Potency means the concentration at half of the fitted maximal effect; tags describe the fitted curve by direction and shape.

Chain of UniProt P08659 (P08659 whole entry, looked up): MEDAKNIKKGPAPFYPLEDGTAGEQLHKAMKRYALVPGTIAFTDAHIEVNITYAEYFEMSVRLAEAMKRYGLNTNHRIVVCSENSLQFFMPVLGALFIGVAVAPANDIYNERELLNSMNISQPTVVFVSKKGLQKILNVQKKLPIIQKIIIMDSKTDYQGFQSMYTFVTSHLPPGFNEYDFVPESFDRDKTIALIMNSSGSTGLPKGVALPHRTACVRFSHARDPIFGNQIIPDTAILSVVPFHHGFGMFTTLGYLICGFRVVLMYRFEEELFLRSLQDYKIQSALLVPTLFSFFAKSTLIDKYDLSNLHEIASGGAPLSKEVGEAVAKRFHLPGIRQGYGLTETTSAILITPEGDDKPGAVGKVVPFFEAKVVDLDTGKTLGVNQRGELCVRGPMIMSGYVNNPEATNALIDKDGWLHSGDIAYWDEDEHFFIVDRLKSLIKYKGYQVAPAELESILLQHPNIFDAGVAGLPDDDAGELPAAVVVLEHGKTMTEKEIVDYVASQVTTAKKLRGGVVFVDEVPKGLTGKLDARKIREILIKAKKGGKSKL

| SMILES | Potency |
| --- | --- |
| O=C(COc1ccc(F)cc1)Nc1ccccc1C(=O)OCc1cc(=O)n2ccsc2n1 | inconclusive: 9.53 µM [inhibitor, partial curve, poor fit] |
| O=C(c1c(O)c2ccccc2oc1=O)C1CCC1 | inconclusive: 23.9 µM [inhibitor, partial curve, poor fit] |
| CC(C)c1cc(C(=O)N2CCCC(CCC(=O)NCc3ccccc3F)C2)n(C)n1 (stereo not given) | inactive |
| O=C(Nc1ccc2c(c1)OCO2)C1CC(=O)N(c2cccc(Cl)c2)C1 (stereo not given) | inconclusive: 37.9 µM [inhibitor, partial curve, poor fit] |
| CCCN1CCc2c(sc(NC(=O)C3CCN(S(=O)(=O)c4cccs4)CC3)c2C(N)=O)C1 | inactive |
| Cc1ccc(Cc2cn3cc(-c4ccccc4)nc3s2)cc1 | active: 0.151 µM |
| Cc1ccc(/C=C/C(=O)Nc2cccc3ncccc23)o1 | inconclusive: 15.1 µM [inhibitor, partial curve, poor fit] |
| COCCSc1nnc(NC(=O)C2CC(=O)N(c3ccc(Cl)cc3)C2)s1 (stereo not given) | inconclusive: 9.53 µM [inhibitor, partial curve] |
| Cc1ccc(C)c(Oc2nc3c(c(=O)n(C)c(=O)n3C)n2Cc2ccccc2)c1 | inconclusive: 26.9 µM [inhibitor, partial curve, poor fit] |
| O=[N+]([O-])c1cccc2ccc(/C=C/c3cccc(Br)c3)nc12 | inconclusive: 23.9 µM [inhibitor, single point] |
| Cc1cccc(NC(=O)c2cc(C)nc3ccccc23)c1 | inactive |
| Cc1nnc(NC(=O)c2ccc3c(c2)C(=O)N(CCC(C)C)C3=O)s1 | inconclusive: 26.9 µM [inhibitor, single point] |
| COc1ccc2c(c1)C=CC1(O2)N(CCO)c2ccccc2C1(C)C (stereo not given) | inconclusive: 33.8 µM [inhibitor, partial curve, poor fit] |
| NCCNC(=O)Cc1ccc(NC(=O)Cc2ccc(Nc3ncnc4c3ncn4[C@@H]3O[C@H](CO)[C@@H](O)[C@H]3O)cc2)cc1 | inconclusive: 30.1 µM [inhibitor, partial curve, poor fit] |
| Clc1ccc(-c2ccc(CN3CCCCC3)o2)cc1 | inconclusive: 26.9 µM [inhibitor, single point] |
| O=Cc1ccc(N2CCCCC2)cc1 | inconclusive: 37.9 µM [inhibitor, partial curve, poor fit] |
| Cc1ccc(C)c(NC(=O)CSc2nc3c([nH]c4ccccc43)c(=O)n2-c2ccc(F)cc2)c1 | inactive |
| CC(C)C(=O)Nc1nc(-c2ccc([N+](=O)[O-])cc2)cs1 | inconclusive: 9.53 µM [inhibitor, partial curve, poor fit] |
| CCOc1ccc(OCC)c(NC(=O)c2cnc(SC)nc2-c2ccccc2)c1 | inactive |
| COc1ccc(C(=O)Nc2cnc(NC(=O)c3cccs3)cc2C)cc1 | active: 16.9 µM |
| Cc1ccc(C)c(Cn2c(=O)n(-c3ccc(Cl)cc3)c(=O)c3c(C)c(C)sc32)c1 | inactive |
| CNC(=S)N/N=C/c1c(C)nn(-c2ccccc2)c1Cl | inconclusive: 16.9 µM [inhibitor, partial curve] |
| Cn1cc(CNCc2cn(C)nc2-c2ccc(C3CCCCC3)cc2)cn1 | inconclusive: 30.1 µM [inhibitor, single point] |
| COc1ccc(OCC(=O)Nc2c3c(nn2-c2ccc(OC)cc2)CS(=O)(=O)C3)cc1 | inactive |

| SMILES | Potency |
| --- | --- |
| COc1ccc(-c2cc(C(=O)OCC(=O)N(C)C3CCS(=O)(=O)C3)c3ccccc3n2)cc1OC (stereo not given) | inconclusive: 21.3 µM [inhibitor, partial curve] |
| Cc1ccc(Cl)cc1N1CCN(C(=O)c2cc(S(=O)(=O)N3CCCC3)c[nH]2)CC1 | inactive |
| Cc1cc(C)nc(Nc2ccc(C)c([N+](=O)[O-])c2)n1 | inconclusive: 37.9 µM [inhibitor, single point] |
| Cc1ccc2nc(N/C(=N/S(=O)(=O)c3ccc(F)cc3F)c3ccccc3)sc2c1 | inconclusive: 9.53 µM [inhibitor, partial curve] |
| Cc1ccc(S(=O)(=O)CC(=O)Nc2nc3ccc(S(N)(=O)=O)cc3s2)cc1 | inconclusive: 37.9 µM [inhibitor, partial curve, poor fit] |
| O=C(Nc1ccccc1)c1ccc2c(c1)OCO2 | active: 12 µM |
| CC(C)(C)OC(=O)N1CCC[C@H]1C(=O)N/N=C/c1ccc2ncccc2c1 | inconclusive: 37.9 µM [inhibitor, partial curve, poor fit] |
| COc1ccc(C(=O)N/N=C/c2c(CO)cnc(C)c2O)cc1 | active: 21.3 µM |
| O=C(CSc1nnc(-c2ccc(O)cc2)o1)Nc1cccc(O)c1 | inconclusive: 19 µM [inhibitor, partial curve] |
| Nc1cccc2cc(-c3ccccc3)oc12 | active: 4.78 µM |
| O=c1[nH]c2ccccc2nc1-c1ccccc1 | inconclusive: 37.9 µM [inhibitor, single point] |
| O=S(=O)(Nc1nc2ccccc2nc1NCC1CCCO1)c1ccccc1 (stereo not given) | inactive |
| Cc1ccc(NC(=O)CSCc2ccc(F)cc2)cc1 | inconclusive: 26.9 µM [inhibitor, single point] |
| c1ccc(-c2noc(CSc3nnnn3C3CCCCC3)n2)cc1 | inconclusive: 26.9 µM [inhibitor, partial curve, poor fit] |
| Cc1ccc(NC(=O)c2sc3nc(C)cc(C)c3c2N)cc1 | active: 1.2 µM |
| CCCn1nnc(NC(=O)COc2ccc(C3CCCCC3)cc2)n1 | inconclusive: 37.9 µM [inhibitor, partial curve, poor fit] |
| O=C(Nc1ccc2c(c1)CCC2)c1cc(S(=O)(=O)Nc2ccc(F)cc2)c(Cl)cc1Cl | inconclusive: 37.9 µM [inhibitor, single point] |
| COc1ccccc1-n1c(SCC(=O)NC2CC2)nc2ccccc2c1=O | inactive |
| Cc1oncc1-c1csc(-c2ccccc2Cl)n1 | inconclusive: 26.9 µM [inhibitor, single point] |
| CCCOc1cccc(NC(=O)OC2CCN(C)CC2)c1 | inactive |
| COc1ccc(N2CCN(C(=O)CNC(=O)c3cn(-c4ccccc4OC)c(=O)c4ccccc34)CC2)cc1 | inconclusive: 26.9 µM [inhibitor, partial curve, poor fit] |
| O=C(N/N=C/c1cn(-c2ccccc2)nc1-c1cc2ccccc2o1)c1ccncc1 | active: 1.9 µM |
| COc1ccc(-c2nnn(CC(=O)c3ccc4c(c3)OCCO4)n2)cc1OC | inconclusive: 26.9 µM [inhibitor, partial curve, poor fit] |
| Cc1ccc(S(=O)(=O)N2CCOCC2)cc1NC(=O)CNCc1ccccc1Cl | inactive |

| SMILES | Potency |
| --- | --- |
| COCCn1c(SCc2ccc(OC)c(F)c2)nc2ccccc2c1=O | inactive |
| CCOC(=O)c1c(NC(=O)COC(=O)c2nccnc2N)sc(C(=O)N(C)C)c1C | inactive |
| COc1ccc(-c2cc(C(=O)N3CCCC3)c3ccccc3n2)cc1OC | inconclusive: 15.1 µM [inhibitor, partial curve] |
| CN(C)c1ccc(/C=c2\sc3n(c2=O)CCCN=3)cc1 | active: 0.239 µM |
| CNC(=O)c1sc(-c2ccccc2)nc1C | inconclusive: 33.8 µM [inhibitor, partial curve, poor fit] |
| COC(=O)c1c(C)[nH]c(C(=O)/C=C/c2ccc(C)cc2)c1C | active: 2.13 µM |
| Cc1cc(-c2n[nH]c(=S)n2-c2ccc(C)c(C)c2)no1 | inactive |
| CCOc1cc(/C=C2\SC(=N)N(c3nonc3N)C2=O)ccc1OCCN1CCOCC1 | inconclusive: 26.9 µM [inhibitor, partial curve, poor fit] |
| Cc1cccc(-c2noc(Cc3ccc(Cl)cc3)n2)c1 | inconclusive: 16.9 µM [inhibitor, partial curve] |
| COc1ccc(C(=O)N/C(=C\c2cccs2)c2nc3ccccc3[nH]2)cc1OC | inconclusive: 21.3 µM [inhibitor, partial curve, poor fit] |
| O=C(/C=C\N1CCOCC1)c1ccc(Br)cc1 | active: 15.1 µM |
| CCOc1ccc(NC(=O)c2ccc3c(c2)C(=O)N(Cc2ccncc2)C3=O)cc1 | inconclusive: 8.49 µM [inhibitor, full curve, poor fit] |
| C/C(CC(=O)Nc1ccccc1C)=N\NC(=O)Cc1csc(N)n1 | inconclusive: 26.9 µM [inhibitor, single point] |
| COc1cccc(Nc2nc3ccccc3c3nncn23)c1 | inconclusive: 30.1 µM [inhibitor, single point] |
| C/C(=N/NC(=O)c1cc2ccccc2cc1O)c1ccco1 | active: 5.36 µM |
| O=C(CSc1nnc(-c2cccs2)o1)N1CCOCC1 | inactive |
| CCSC1=N/C(=C\c2cccc(F)c2)C(=O)S1 | inconclusive: 33.8 µM [inhibitor, partial curve, poor fit] |
| CCN(CC)c1ccc(NC(=O)c2ccccc2OCC(=O)OC)cc1 | active: 21.3 µM |
| CC(=C/c1ccccc1)/C=N/NC(=O)CSc1nc(C)cc(C)n1 | inactive |
| COc1ccccc1-c1nnc(SCC(=O)N2CCOCC2)o1 | inconclusive: 30.1 µM [inhibitor, partial curve, poor fit] |
| COc1ccc(-c2nnc(NC(=O)CS(=O)(=O)c3ccc(Cl)cc3)o2)c(OC)c1 | inconclusive: 30.1 µM [inhibitor, partial curve, poor fit] |
| C/C(CCc1ccc2c(c1)OCO2)=N\N=C1\NC(=O)CC(C(=O)Nc2ccccc2F)S1 (stereo not given) | inconclusive: 15.1 µM [inhibitor, partial curve] |
